The supplement of paper PMC9446081
In all, about 39,000 compounds went through this assay and about 220 (0.56%) showed activity. Some of the results follow.
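Note: static incubation at 37 °C against the wild-type strain, values averaged over two biological replicates.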

Each compound was assayed on Escherichia coli K-12 BW25113 (assay: relative growth (OD600 normalised to plate interquartile mean) (fraction); higher = less growth inhibition, active = 0.2 or less). Settings: 50 µM; LB; incubation time: overnight (16-24 h).
`COC(=O)C(CC#Cc1ccc2c(c1)[C@]1(C(=O)N2)[C@H](c2ccccc2OCCO)N2[C@H](c3ccccc3)[C@H](c3ccccc3)OC(=O)[C@H]2[C@@H]1C(=O)N1CCc2cc(OC)c(OC)cc2C1)C(=O)OC` was tested, and the relative growth was inactive: 1.07. With `Cc1ccc(S(=O)(=O)N(C)C[C@@H]2Oc3ccc(NC(=O)CCN4CCOCC4)cc3C(=O)N([C@@H](C)CO)C[C@H]2C)cc1` the relative growth was inactive: 0.999. `NCCCc1nc2c(s1)CCCC2` was tested, and the relative growth was inactive: 0.998. In the case of `CC(C)NC(=O)Nc1ccc2c(c1)C(=O)N([C@@H](C)CO)C[C@H](C)[C@@H](CN(C)Cc1ccc(-c3ccccc3)cc1)O2`, the relative growth is reported as inactive: 0.981. For `O=C(C[C@H]1NC(=O)NC1=O)Nc1ccccc1`, the relative growth was inactive: 1.01. In the case of `CC(C)CC#Cc1ccc2c(c1)O[C@H](CN(C)S(=O)(=O)c1cccc(F)c1)[C@@H](C)CN([C@H](C)CO)S2(=O)=O`, the relative growth is reported as inactive: 1.02. With `CC(C)NC(=O)N(C)C[C@H]1OCCCC[C@@H](C)Oc2ccc(NC(=O)Nc3ccc(C(F)(F)F)cc3)cc2C(=O)N([C@H](C)CO)C[C@@H]1C` the relative growth was inactive: 0.986. With `CN(C)CC#Cc1ccc([C@H]2[C@H]3CN(C(=O)c4cccnc4)CC(=O)N3[C@H]2CO)cc1` the relative growth was inactive: 0.989. In the case of `COc1ccccc1CN1C(=O)c2ccccc2[C@@]2(Cc3ccccc3N(CC(C)C)C2=O)[C@@H]1c1ccc(CO)cc1`, the relative growth is reported as inactive: 1.01. For `C[C@@H]1CN([C@@H](C)CO)C(=O)c2cc(C3=CCCCC3)cnc2O[C@@H]1CN(C)S(=O)(=O)c1cn(C)cn1`, the relative growth was inactive: 0.986. In the case of `C[C@H]1CN([C@@H](C)CO)S(=O)(=O)c2ccc(C3=CCCC3)cc2O[C@@H]1CN(C)C(=O)c1cnccn1`, the relative growth is reported as inactive: 1.02. `COc1ccc(S(=O)(=O)Nc2ccc3c(c2)C(=O)N([C@@H](C)CO)C[C@H](C)[C@H](CN(C)S(=O)(=O)c2cccs2)O3)cc1` was tested, and the relative growth was inactive: 0.999. For `COc1ccccc1NC(=O)N(C)C[C@H]1Oc2ncc(Br)cc2C(=O)N([C@H](C)CO)C[C@@H]1C`, the relative growth was inactive: 0.988. `CC(C)NC(=O)N(C)C[C@H]1Oc2ccc(NC(=O)Nc3ccc4c(c3)OCO4)cc2CC(=O)N([C@H](C)CO)C[C@H]1C` was tested, and the relative growth was inactive: 0.974. With `C[C@@H]1CN([C@H](C)CO)C(=O)Cc2cc(NS(=O)(=O)c3cn(C)cn3)ccc2O[C@H]1CN(C)Cc1ccncc1` the relative growth was inactive: 0.968. `COc1ccc(S(=O)(=O)N(C)C[C@@H]2Oc3c(NC(=O)c4ccncc4)cccc3C(=O)N([C@H](C)CO)C[C@H]2C)cc1` was tested, and the relative growth was inactive: 0.986. With `COc1ccc(C[C@H](N)C(=O)N[C@H]2[C@@H](O)[C@@H](n3cnc4c(N(C)C)ncnc43)O[C@@H]2CO)cc1` the relative growth was inactive: 0.748.
